Experimental findings from paper PMC4336329 (PLoS ONE, 2015) are described below.

Molecules are shown by their SMILES. The campaign covered roughly 310,000 compounds. About 14,000 (4.5%) showed an effect of 50% or more. The effect is printed as a negative number. Some of the results follow.
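Also: peak tail current of the secondary pulse compared with the same well before compound.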

This experiment deals with human ether-à-go-go-related gene (hERG) potassium channel (human, UniProt Q12809). The experiment in a line: primary screen, population patch clamp on CHO cells stably expressing hERG.
Sequence of human ether-à-go-go-related gene (hERG) potassium channel (Q12809 whole entry, looked up): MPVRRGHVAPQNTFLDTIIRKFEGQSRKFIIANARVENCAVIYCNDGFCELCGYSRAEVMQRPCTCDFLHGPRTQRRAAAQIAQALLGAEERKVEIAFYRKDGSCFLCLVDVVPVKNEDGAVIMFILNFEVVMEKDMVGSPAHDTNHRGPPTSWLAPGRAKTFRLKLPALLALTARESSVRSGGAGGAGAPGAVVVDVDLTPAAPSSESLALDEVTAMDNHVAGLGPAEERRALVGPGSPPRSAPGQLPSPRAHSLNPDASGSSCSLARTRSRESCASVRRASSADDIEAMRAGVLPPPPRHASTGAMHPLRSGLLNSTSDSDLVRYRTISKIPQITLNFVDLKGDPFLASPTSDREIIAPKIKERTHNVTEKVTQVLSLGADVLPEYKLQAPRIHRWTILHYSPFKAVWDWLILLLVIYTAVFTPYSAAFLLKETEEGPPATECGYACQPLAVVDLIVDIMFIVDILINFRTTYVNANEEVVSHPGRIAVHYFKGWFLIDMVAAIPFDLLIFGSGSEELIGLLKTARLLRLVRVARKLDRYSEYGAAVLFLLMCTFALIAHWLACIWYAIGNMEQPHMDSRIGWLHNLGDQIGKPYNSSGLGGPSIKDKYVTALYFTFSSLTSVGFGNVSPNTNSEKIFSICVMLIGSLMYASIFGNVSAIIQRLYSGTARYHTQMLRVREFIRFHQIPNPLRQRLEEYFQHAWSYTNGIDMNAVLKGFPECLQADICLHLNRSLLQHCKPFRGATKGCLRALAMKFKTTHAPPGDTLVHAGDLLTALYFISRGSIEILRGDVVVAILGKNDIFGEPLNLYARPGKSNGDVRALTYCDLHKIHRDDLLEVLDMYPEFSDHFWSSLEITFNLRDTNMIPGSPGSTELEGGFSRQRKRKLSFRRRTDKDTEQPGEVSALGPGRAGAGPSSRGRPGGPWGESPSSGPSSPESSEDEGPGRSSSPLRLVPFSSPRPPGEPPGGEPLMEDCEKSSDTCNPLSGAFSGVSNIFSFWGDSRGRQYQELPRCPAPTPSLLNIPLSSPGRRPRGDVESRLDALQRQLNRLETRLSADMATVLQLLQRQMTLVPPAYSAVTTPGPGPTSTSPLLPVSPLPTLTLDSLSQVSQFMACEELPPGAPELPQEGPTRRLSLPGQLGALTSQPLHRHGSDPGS
For `COc1ccc(N=C(C)c2c(O)n(C3CCCCC3)c(=O)[nH]c2=O)c(OC)c1`, the “hERG current change (%, negative = inhibition) at 10uM” value is on record as 4.3%.
Turning to `CS(=O)(=O)NN1C(=O)c2ccccc2NC1c1cc2ccccc2nc1Cl` (stereo not drawn), the “hERG current change (%, negative = inhibition) at 10uM” value was -23.6%.
For `CCOC(=O)NC(=O)/C(C#N)=N\Nc1ccc(Cl)cc1` the value was 18.2%; for `O=C(O)C1=C[C@H](c2ccccc2)C[C@H](OCc2ccc(CO)cc2)O1`, 12.7%.
For `O=C(O)C1CC=CCC1C(=O)Nc1ccc2c(c1)CCC2` (stereo not drawn) the value was -14.8%.
For `Cn1c(=O)c2c(ncn2CCOc2cccc(Br)c2)n(C)c1=O` the value was -33.3%; for `COCCn1c(SCC(=O)Nc2ccc3c(c2)OCCO3)nnc1C(C)C`, 2.68%; for `Cc1ccc(-c2nnn(CC(=O)N(c3ccc(F)cc3)C(C(=O)NC(C)(C)C)c3ccco3)n2)o1` (stereo not drawn), 9.24%.
`COc1cc(CN2CCC(Cc3ccccc3)CC2)cc([N+](=O)[O-])c1O`: the “hERG current change (%, negative = inhibition) at 10uM” value was 0.943%.
For `COc1cc(/C=C(\C#N)c2nn(CCO)c(N)c2C#N)cc(OC)c1OC` the value was 12.5%.
`COc1cc(S(=O)(=O)Nc2cccc(C)c2)ccc1NC(=O)c1ccncc1`: the “hERG current change (%, negative = inhibition) at 10uM” value was found to be 19.6%.
For `COc1cc(OC)c(C2C(C(=O)Nc3ccc(C)cc3C)=C(C)Nc3ncnn32)cc1OC` (stereo not drawn) the value was 16.4%; for `Cc1ccc(NC(=S)Nc2c(C)n(C)n(-c3ccccc3)c2=O)cc1`, -7.19%; for `CCN(C(=O)c1cc2c(=O)n3ccccc3nc2n1C)C1CCCCC1`, 6.65%.
For the molecule `Fc1ccc(N2CCN(Cc3nnc(-c4ccccc4)o3)CC2)cc1`, the “hERG current change (%, negative = inhibition) at 10uM” value is -11.9%.
In the case of `COC(=O)c1ccc(CNC(=O)c2coc3ccccc3c2=O)cc1`, the “hERG current change (%, negative = inhibition) at 10uM” value came to 15.9%.
Turning to `O=C(N/N=C/c1c(O)ccc2ccccc12)c1cccnc1`, the “hERG current change (%, negative = inhibition) at 10uM” value came to 7.7%.
With `Cc1nc(NC(=O)CCN2C(=O)C3CC=CCC3C2=O)sc1C` (stereo not drawn), the “hERG current change (%, negative = inhibition) at 10uM” value was -0.353%.
Under `CCO[C@H]1OC(C(=O)O)=C[C@@H](c2ccc3c(c2)OCO3)[C@@H]1CCCO` stands 15.6%; under `CS(=O)(=O)Nc1ccc(C(=O)NCCSCc2ccco2)cc1`, -44.1%; under `CSc1ccc(CN2CCN(C(=O)COc3ccc(C)cc3)CC2)cc1.O=C(O)C(=O)O`, -60.4%.
`COc1ccc(-c2csc3nc(-c4cccnc4)nc(N4CCC(C(N)=O)CC4)c23)cc1OC`: the “hERG current change (%, negative = inhibition) at 10uM” value is on record as -28.9%.
As for `Cc1c(S(=O)(=O)NC2CCCCC2)c(=O)n(C)c(=O)n1C`, the “hERG current change (%, negative = inhibition) at 10uM” value is reported as -2.37%.
Under `O=C(O)CCc1ccc(-c2ccc(Cl)cc2)n1CC(=O)O` stands -38.4%; under `O=C(Nn1cnnc1)c1cc(-c2ccccn2)nc2ccccc12`, 1.57%; under `CC(C)NC(=O)Cn1c(SCC(=O)c2ccc(F)cc2)nc2ccccc21`, 6.27%.
For `CC(=O)c1cccc(N=Nc2c(C)[nH]c3ccccc23)c1` the value was 20.5%; for `O=C1CC(N2CCC(O)(c3ccc(Cl)cc3)CC2)C(=O)N1` (stereo not drawn), -1.76%.
Under `O=C(CN1C(=O)CCOc2ccccc21)Nc1cccc(S(=O)(=O)N2CCOCC2)c1` stands -17.9%.
`Cc1ccc(NC(=O)Nc2ccc(F)c(Cl)c2)cc1`: the “hERG current change (%, negative = inhibition) at 10uM” value is reported as 18.7%.
As for `Cc1ccc(S(=O)(=O)NC(CC(C)C)C(=O)Nc2nccs2)cc1` (stereo not drawn), the “hERG current change (%, negative = inhibition) at 10uM” value was 11.5%.
`CNC(=O)COc1ncnc2scc(-c3ccc(F)cc3)c12`: the “hERG current change (%, negative = inhibition) at 10uM” value was 14.8%.
In the case of `CCCCCC1CC(CC(=O)NC(=S)Nc2ccccc2Cl)C(=O)O1` (stereo not drawn), the “hERG current change (%, negative = inhibition) at 10uM” value is on record as 19.8%.
Turning to `COc1cc2c(cc1OC)C1(NCC2)C(=O)Nc2ccccc21` (stereo not drawn), the “hERG current change (%, negative = inhibition) at 10uM” value is -1.97%.
Turning to `NCCNC(=O)Cc1cccc(NC(=O)Cc2ccc(Nc3ncnc4c3ncn4[C@@H]3O[C@H](CO)[C@@H](O)[C@H]3O)cc2)c1`, the “hERG current change (%, negative = inhibition) at 10uM” value worked out at 16.7%.
`COc1ccc(C(=O)C2CCCN(Cc3cc(C)c(O)c(C)c3)C2)c(OC)c1` (stereo not drawn): the “hERG current change (%, negative = inhibition) at 10uM” value was -61%.
For `COc1cc2c(cc1OC)CN(CC(=O)Nc1cccc(C)c1)CC2` the value was -18.8%; for `Cc1ccccc1C(=O)N1CCC(C(=O)Nc2ccc3c(c2)OCCO3)CC1`, 5.7%; for `Cc1cnc(SCc2ccc(Cl)cc2Cl)[nH]c1=O`, 13.5%.
Under `O=C(Nc1cccc(O)c1)c1cc(-c2ccccc2Cl)on1` stands 20.7%.
On to `CS(=O)(=O)N1CCCC(C(=O)c2cccc(Cl)c2)C1` (stereo not drawn), for which the “hERG current change (%, negative = inhibition) at 10uM” value came to 19.4%.
Under `CCc1c(C)nc(SCC(=O)N2CCCCC2CC)[nH]c1=O` (stereo not drawn) stands -2.66%.
Under `Cc1[nH]c(=O)[nH]c(=O)c1/C=C/C(=O)O` stands -8.47%; under `CNC(=O)c1[nH]cnc1C(=O)Nc1cccc(Cl)c1`, -5.99%.
As to `CCOC(=O)c1c(C)n(C)c2ccc(OC)c(NC(=O)CN3CCSCC3)c12`, the “hERG current change (%, negative = inhibition) at 10uM” value was determined as 14.7%.
Regarding `CC1=C(C(=O)N2CCOCC2)C(c2ccc(OC(F)F)cc2)NC(=S)N1c1ccccc1` (stereo not drawn), the “hERG current change (%, negative = inhibition) at 10uM” value was 11.9%.
For `O=S(=O)(Cc1ccccc1)N1CCCC1` the value was 2.58%; for `Cc1ccc(S(=O)(=O)Nc2ccc(N3CCOCC3)cc2)cc1C`, 2.95%.
For `O=C(Nc1cccc(-c2nnc(-c3ccco3)o2)c1)c1ccccc1` the value was -21.5%; for `COc1ccc(C(C)(C)C)cc1S(=O)(=O)n1ccnc1C`, 12.1%; for `O=C(Nc1cc2c3c(c1)CC(=O)N3CCC2)c1ccc(F)cc1`, -15.8%.
Under `COc1ccc(CNC(=O)CSc2nc(C)cs2)cc1` stands 5.7%; under `Cc1cc(C)cc(NC(=S)NC2CC3CCCC(C2)N3Cc2cccs2)c1` (stereo not drawn), -52.9%.
In the case of `COc1cc(F)c(C2=CC(=O)C[C@H](c3ccc(Cl)cc3)C2)cc1F`, the “hERG current change (%, negative = inhibition) at 10uM” value was 25.7%.
For `OC1(C(F)(F)F)CC(O)(C(F)(F)F)n2nc(-c3ccccc3)cc2N1` (stereo not drawn), the “hERG current change (%, negative = inhibition) at 10uM” value is on record as -0.248%.
For `CCn1c(C(C)NC(=O)c2ccc(OC)c(OC)c2)nc2ccccc21` (stereo not drawn), the “hERG current change (%, negative = inhibition) at 10uM” value is reported as -40%.
Turning to `CC(=O)Nc1ccc(NC(=O)c2ccc3c(c2)C(=O)N(c2ccccc2C)C3=O)cc1`, the “hERG current change (%, negative = inhibition) at 10uM” value came to 9.23%.
